From article PMC4336329 (PLoS ONE, 2015)
About 2,200 (0.71%) of roughly 310,000 compounds showed an effect of 50% or more. Effects have a minus sign here. The list shows a part of the results.

Target: human ether-à-go-go-related gene (hERG) potassium channel (human, UniProt Q12809)
Assay: primary screen, population patch clamp on CHO cells stably expressing hERG

Sequence of human ether-à-go-go-related gene (hERG) potassium channel (Q12809 whole entry, looked up): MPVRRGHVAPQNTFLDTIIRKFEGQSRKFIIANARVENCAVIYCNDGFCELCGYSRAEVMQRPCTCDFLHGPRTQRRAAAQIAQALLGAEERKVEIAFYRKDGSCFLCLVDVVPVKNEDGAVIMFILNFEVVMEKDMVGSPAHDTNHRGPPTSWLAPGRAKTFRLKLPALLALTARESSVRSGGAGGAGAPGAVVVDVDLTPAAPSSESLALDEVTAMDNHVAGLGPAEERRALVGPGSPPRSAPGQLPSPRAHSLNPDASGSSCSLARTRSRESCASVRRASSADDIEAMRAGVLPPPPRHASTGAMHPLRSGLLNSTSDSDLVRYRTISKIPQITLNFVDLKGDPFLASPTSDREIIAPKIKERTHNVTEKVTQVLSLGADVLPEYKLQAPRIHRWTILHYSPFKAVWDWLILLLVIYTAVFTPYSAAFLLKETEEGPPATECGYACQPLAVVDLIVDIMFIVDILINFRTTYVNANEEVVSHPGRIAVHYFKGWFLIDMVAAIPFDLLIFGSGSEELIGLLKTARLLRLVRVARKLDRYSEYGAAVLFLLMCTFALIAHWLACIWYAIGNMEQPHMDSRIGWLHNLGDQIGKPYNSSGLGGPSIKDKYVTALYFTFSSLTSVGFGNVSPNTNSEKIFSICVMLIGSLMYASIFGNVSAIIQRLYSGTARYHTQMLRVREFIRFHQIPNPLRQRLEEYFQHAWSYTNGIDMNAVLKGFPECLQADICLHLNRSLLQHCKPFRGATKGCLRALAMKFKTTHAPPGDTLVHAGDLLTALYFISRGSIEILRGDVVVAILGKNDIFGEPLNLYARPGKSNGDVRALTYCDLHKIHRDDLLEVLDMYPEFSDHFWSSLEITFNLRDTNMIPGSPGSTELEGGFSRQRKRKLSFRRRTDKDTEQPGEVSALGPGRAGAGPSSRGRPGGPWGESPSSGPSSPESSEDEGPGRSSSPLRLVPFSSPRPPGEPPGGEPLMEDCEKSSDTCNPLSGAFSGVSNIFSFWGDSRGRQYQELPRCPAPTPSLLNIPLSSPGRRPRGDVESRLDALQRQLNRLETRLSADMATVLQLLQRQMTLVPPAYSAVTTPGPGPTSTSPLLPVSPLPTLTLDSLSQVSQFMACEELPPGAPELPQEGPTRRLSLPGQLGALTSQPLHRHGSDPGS

Row | SMILES | hERG current change (%, negative = inhibition) at 1uM
1 | CCOc1cccc(CN2CCCC(C(=O)c3cc(Cl)ccc3OC)C2)c1O (centres unmarked) | -28.8%
2 | N#CN=C(N)c1ccccc1 | 4.65%
3 | COc1ccc(C(=O)C2CCCN(Cc3sc(N4CCCC4)nc3Cl)C2)c(OC)c1 (centres unmarked) | -3.42%
4 | CC(NC(=O)c1ccc(N(C)C)cc1)C(c1cccs1)N1CCN(C)CC1 (centres unmarked) | 10.9%
5 | Cc1ccc(CNC(=O)C2CCN(S(=O)(=O)c3ccc(Br)s3)CC2)cc1 | -1.03%
6 | Cc1ccc(S(=O)(=O)CCC(=O)Nc2nnc(-c3ccco3)o2)cc1 | 15.4%
7 | COc1ccc(C(=O)NNC(=O)c2ccccc2[N+](=O)[O-])cc1 | 16.9%
8 | COc1ccc(Cl)cc1NC(=O)CN1CCN(S(=O)(=O)N2CCCCC2)CC1 | 6.88%
9 | Cc1ccc(/C=N/NC(=O)c2cccnc2)o1 | 13.9%
10 | C/C(=C(\C#N)C(=O)NCc1ccccc1)N(C)C | 10.6%
11 | CC(C)C(=O)N1CCN(c2ccc([N+](=O)[O-])cc2Cl)CC1 | -5.34%
12 | Cc1cccc(C(=O)N2CCCC(N3CCN(Cc4ccc5c(c4)OCO5)CC3)C2)n1 (centres unmarked) | -14.7%
13 | CCOc1ccc(S(=O)(=O)N2CCOCC2)cc1NC(=O)CN1C(=O)NC(CC)(c2ccccc2)C1=O (centres unmarked) | -14.2%
14 | CCOC(=O)C1CCN(C(=O)C2CCC(=O)N(Cc3cccc(C(F)(F)F)c3)C2)CC1 (centres unmarked) | 7.79%
15 | CCN(C(=O)c1ccc(N2CC3CC(C2)c2cccc(=O)n2C3)c(NC(=O)c2ccncc2)c1)c1cccc(C)c1 (centres unmarked) | 12.9%
16 | O=C(Nc1ccc2c(c1)OCO2)C1CCN(c2ccc(S(=O)(=O)N3CCOCC3)cc2)CC1 | 8.98%
17 | N#Cc1nc(-c2ccccc2Cl)oc1NCc1ccco1 | 7.4%
18 | Cc1cc(NC(=O)c2cc(-c3cccs3)nc3ccccc23)no1 | 11.1%
19 | CCCn1c(SCC(=O)Nc2ccccc2CC)nnc1C(C)C | 8.92%
20 | O=c1[nH]c(=S)[nH]c(O)c1N=Nc1ccc(SC(F)F)cc1 | 17.2%
21 | CCOc1ccccc1NC(=O)N1CCCC1C(=O)NCc1cccs1 (centres unmarked) | 15.4%
22 | CC(=O)Nc1ccccc1NC(=O)c1ccccc1-c1ccccc1 | 12.3%

Row | SMILES | hERG current change (%, negative = inhibition) at 1uM
23 | CC1(C)CC(=O)C2=C(C1)OC(N)=C(C#N)[C@@H]2c1ccccc1[N+](=O)[O-] | -1.91%
24 | Cc1[nH]c(=S)c(C#N)c(C)c1CCC#N | 13.2%
25 | CON(c1nc(Cl)nc(N(C)C)n1)S(=O)(=O)c1ccc(C)cc1 | 6.06%
26 | O=C(CSc1nnc(-c2ccccn2)n1Cc1ccccc1)N1CCOCC1 | 2.91%
27 | CC(C)OC(=O)CSc1nnc(COc2ccc([N+](=O)[O-])cc2)n1C | -34.8%
28 | CN(C)CCCNC(=O)c1cc(Br)ccc1O | 12.2%
29 | COc1ccc(S(=O)(=O)N2CCN(C(=O)C3CCCO3)CC2)cc1 (centres unmarked) | 6%
30 | COC(=O)c1sccc1-n1cc(C#N)c(=O)n(C)c1=O | 17.7%
31 | COc1ccc(CCNC(=O)C2CCN(S(=O)(=O)c3cccc4nonc34)CC2)cc1OC | -3.79%
32 | CC(O)c1ccc2c(c1)OCCOCCN(C)CCOCCO2 (centres unmarked) | 7.18%
33 | Cc1cc(Cl)cc(Br)c1OCCCCn1cncn1 | -0.515%
34 | CC(=O)N(Cc1ccccc1C)c1cccc(C)c1C | 19.6%
35 | CN(CC(=O)Nc1ccc(Cl)cc1)CC(=O)Nc1ccc(F)c(F)c1F | -1.62%
36 | COc1ccc2ccccc2c1/C=N/NC(=O)CC1(C)OCCCO1 | 11.6%
37 | COCCn1c(SCc2nc3ccccc3c(=O)[nH]2)nnc1-c1ccncc1 | 0.523%
38 | Cc1ccc(C)c(NS(=O)(=O)c2ccc(OCC(=O)N3CCOCC3)cc2)c1 | -1.75%
39 | CC(=O)c1cnc2nc(SCc3cccc(C)c3)nn2c1C | 1.09%
40 | O=C(CSc1nnc(-c2cnccn2)n1Cc1ccco1)c1ccc(Cl)c(Cl)c1 | -37.9%
41 | Cc1cccc(C2=N/C(=C\c3cccs3)C(=O)O2)c1 | 18.2%
42 | O=C(Nc1ccc(Cl)c(Cl)c1)C1CC(=O)N(c2ccc(Br)cc2)C1 (centres unmarked) | 14.6%
43 | Cc1cc(NC(=O)CN2CCN(C/C=C/c3ccccc3)CC2)c([N+](=O)[O-])cc1C | 14%
44 | CCn1cc(CN2CCCC(C(=O)Nc3cccc(-c4cc5ccccc5[nH]4)c3)C2)c(C)n1 (centres unmarked) | 7.6%
